Source: article PMC4336329 (PLoS ONE, 2015)
In all, about 310,000 compounds went through this assay and about 14,000 (4.5%) showed an effect of 50% or more. Effects have a minus sign here. The list shows a part of the results.

The compounds below were run against human ether-à-go-go-related gene (hERG) potassium channel (human, UniProt Q12809) (assay: primary screen, population patch clamp on CHO cells stably expressing hERG).
Experimental: Briefly, Chinese hamster ovary (CHO) cells stably expressing the hERG channel were dislodged from tissue culture flasks and dispensed into PPC plates. […] During the recording, background leak currents were estimated by a 100 ms step to -80 mV from an initial holding potential of -70 mV and subtracted from the subsequent current measurement. The campaign was conducted in two phases using slight differences in recording protocol. In the first phase, the initial voltage pulse used a 100 ms step to -30 mV from a holding potential of -70 mV, a 2 s conditioning step to +25 mV, and a 2 s test step to -30 mV. During the second phase of the screen, the potential during the conditioning step was raised to +45 mV. In both phases of the campaign, a secondary voltage pulse was applied using the same parameters as the second phase initial pulse. The initial and secondary pulses were applied in the absence of compound, and upon application of 1 μM and 10 μM test concentrations. […]
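Also: peak tail current of the secondary pulse compared with the same well before compound.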

Chain of human ether-à-go-go-related gene (hERG) potassium channel (Q12809 whole entry, looked up): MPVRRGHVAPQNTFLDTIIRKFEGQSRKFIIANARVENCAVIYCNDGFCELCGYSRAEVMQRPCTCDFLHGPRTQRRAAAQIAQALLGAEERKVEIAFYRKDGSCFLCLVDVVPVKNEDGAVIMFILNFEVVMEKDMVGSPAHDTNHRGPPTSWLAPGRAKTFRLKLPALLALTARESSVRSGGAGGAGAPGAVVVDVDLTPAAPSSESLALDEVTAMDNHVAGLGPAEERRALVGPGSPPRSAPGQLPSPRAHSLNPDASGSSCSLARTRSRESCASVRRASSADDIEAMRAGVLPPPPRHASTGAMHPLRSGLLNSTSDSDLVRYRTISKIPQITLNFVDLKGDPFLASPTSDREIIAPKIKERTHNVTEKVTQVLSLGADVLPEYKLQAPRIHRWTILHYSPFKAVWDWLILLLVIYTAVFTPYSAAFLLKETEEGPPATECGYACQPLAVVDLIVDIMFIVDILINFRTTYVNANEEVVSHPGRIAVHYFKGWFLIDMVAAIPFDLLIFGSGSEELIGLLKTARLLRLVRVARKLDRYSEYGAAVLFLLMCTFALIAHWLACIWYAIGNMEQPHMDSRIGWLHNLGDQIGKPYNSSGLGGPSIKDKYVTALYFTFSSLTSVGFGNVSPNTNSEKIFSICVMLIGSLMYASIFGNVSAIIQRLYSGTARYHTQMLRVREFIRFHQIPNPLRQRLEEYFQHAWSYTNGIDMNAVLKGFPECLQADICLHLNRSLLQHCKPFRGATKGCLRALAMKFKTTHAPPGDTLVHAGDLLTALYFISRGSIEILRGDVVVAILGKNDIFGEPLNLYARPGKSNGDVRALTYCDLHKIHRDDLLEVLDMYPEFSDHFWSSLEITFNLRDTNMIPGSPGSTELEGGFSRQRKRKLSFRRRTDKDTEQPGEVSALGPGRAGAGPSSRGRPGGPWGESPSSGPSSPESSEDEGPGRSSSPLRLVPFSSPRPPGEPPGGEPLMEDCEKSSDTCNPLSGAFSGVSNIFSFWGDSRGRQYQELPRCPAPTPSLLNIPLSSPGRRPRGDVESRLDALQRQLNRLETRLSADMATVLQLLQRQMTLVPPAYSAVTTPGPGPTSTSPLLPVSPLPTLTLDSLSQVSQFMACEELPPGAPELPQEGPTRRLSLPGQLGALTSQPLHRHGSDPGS

Q: How did the “hERG current change (%, negative = inhibition) at 10uM” value turn out when `Cc1ccc(S(=O)(=O)CCSc2nc(C)cc(C)c2C#N)cc1` was run?
A: The value was 9.37%.

Q: `CCN(C(=O)CSc1nc2cc(S(=O)(=O)N(CC)CC)ccc2o1)C1CCS(=O)(=O)C1` (stereo not drawn) was tested. Which “hERG current change (%, negative = inhibition) at 10uM” value did it give?
A: The value was -8.53%.

Q: With `Cc1cc(C)n2nc(C(=O)Nc3ccc4c(c3)OCO4)nc2n1` as the compound, how does the “hERG current change (%, negative = inhibition) at 10uM” value read?
A: The value was -1.25%.

Q: `c1ccc(-c2cc(-c3nnc4n3N=C(c3ccc5ccccc5c3)CS4)[nH]n2)cc1` was tested. Which “hERG current change (%, negative = inhibition) at 10uM” value did it give?
A: The value was -5.45%.

Q: With `O=C(Cc1ccccc1)NN1CCCCC1` as the compound, how does the “hERG current change (%, negative = inhibition) at 10uM” value read?
A: Its value is 15.7%.

Q: How did the “hERG current change (%, negative = inhibition) at 10uM” value turn out when `O=C(OCCN=C1NS(=O)(=O)c2ccccc21)C1CC(=O)N(c2ccc3ccccc3c2)C1` (stereo not drawn) was run?
A: Its value is -15.7%.

Q: With `S=c1[nH]nc(COc2ccc(Cl)cc2)n1-c1ccc(Cl)cc1` as the compound, how does the “hERG current change (%, negative = inhibition) at 10uM” value read?
A: The value was 24.8%.

Q: `CCOc1cc(/C=N/NC(=O)c2ccncc2)ccc1OC(=O)c1ccco1` was tested. Which “hERG current change (%, negative = inhibition) at 10uM” value did it give?
A: Its value is -27.5%.

Q: Which “hERG current change (%, negative = inhibition) at 10uM” value does the source give for `Oc1ccc(-c2[nH]ncc2-c2cnn(-c3ccccc3)c2)c(O)c1` here?
A: Its value is 2.79%.

Q: Which “hERG current change (%, negative = inhibition) at 10uM” value does the source give for `FC(F)(F)c1nnc2ccc(NCc3cccnc3)nn12` here?
A: Its value is 10.6%.

Q: How did the “hERG current change (%, negative = inhibition) at 10uM” value turn out when `CC1(C)N=C(N)N=C(N)N1c1ccccc1.Cl` was run?
A: The value was 16.7%.

Q: How did the “hERG current change (%, negative = inhibition) at 10uM” value turn out when `CC(=O)c1sc(NC(=O)C2CCN(c3ncnc4sc(C)c(C)c34)CC2)nc1-c1ccccc1` was run?
A: The value was 13.7%.

Q: Which “hERG current change (%, negative = inhibition) at 10uM” value does the source give for `Cc1ccc(/C=C2\SC(=S)N(CCCC(=O)Nc3ccccc3C(=O)O)C2=O)cc1` here?
A: Its value is -6.61%.

Q: For `Cn1c(=O)[nH]c(=O)c2c1nc(CN1CCOCC1)n2CCCc1ccccc1`, which “hERG current change (%, negative = inhibition) at 10uM” value is on record?
A: The value was -11.4%.

Q: With `CCOC(=O)N1CCC(NC(=O)C2CCCN(C(=O)c3cc4sccc4n3C)C2)CC1` (stereo not drawn) as the compound, how does the “hERG current change (%, negative = inhibition) at 10uM” value read?
A: Its value is -5.34%.

Q: `COC(=O)C1=C(c2ccccc2)C[C@@H]2CC[C@H]1N2C(=O)N1CCOCC1` was tested. Which “hERG current change (%, negative = inhibition) at 10uM” value did it give?
A: Its value is -1.88%.

Q: How did the “hERG current change (%, negative = inhibition) at 10uM” value turn out when `CCOC(=O)c1sc(NC(=O)C2CC(=O)N(c3ccc4c(c3)OCCO4)C2)nc1C` (stereo not drawn) was run?
A: Its value is -23.8%.

Q: How did the “hERG current change (%, negative = inhibition) at 10uM” value turn out when `CC(=O)Nc1ccc(S(=O)(=O)NCc2cc(=O)n(C)c(=O)n2C)cc1` was run?
A: The value was 18.5%.

Q: Which “hERG current change (%, negative = inhibition) at 10uM” value does the source give for `Cc1cccc(NC(=O)c2ccc(NCC3CCCO3)c([N+](=O)[O-])c2)n1` (stereo not drawn) here?
A: Its value is 14.2%.

Q: With `CCOC(=O)Cc1n[nH]c(=O)c2ccccc12` as the compound, how does the “hERG current change (%, negative = inhibition) at 10uM” value read?
A: Its value is 3.11%.

Q: For `C=CCC(C(=O)c1ccccc1)[N+](C)(C)CC=C.[Br-]` (stereo not drawn), which “hERG current change (%, negative = inhibition) at 10uM” value is on record?
A: Its value is 24.1%.

Q: For `O=C(NCC1CCCO1)C(c1ccc(F)cc1)N(CCCN1CCOCC1)C(=O)c1ccc(-c2ccccc2)[nH]1` (stereo not drawn), which “hERG current change (%, negative = inhibition) at 10uM” value is on record?
A: The value was -26.2%.

Q: `CCOc1ccc(OCC)c(NC(=O)C2CCN(c3nn4c(=O)cc(C)nc4s3)CC2)c1` was tested. Which “hERG current change (%, negative = inhibition) at 10uM” value did it give?
A: Its value is -30.5%.

Q: Which “hERG current change (%, negative = inhibition) at 10uM” value does the source give for `COc1cccc(/C=N/Nc2nnc(C)n2N)c1O.Cl` here?
A: Its value is 12.7%.

Q: Which “hERG current change (%, negative = inhibition) at 10uM” value does the source give for `CN1CCN(c2nc(-c3cccc([N+](=O)[O-])c3)nc3ccccc23)CC1` here?
A: The value was -48.4%.

Q: Which “hERG current change (%, negative = inhibition) at 10uM” value does the source give for `Cc1ccc(NC(=O)CN2CCc3ccccc3C2)cc1` here?
A: The value was -30.3%.

Q: Which “hERG current change (%, negative = inhibition) at 10uM” value does the source give for `Cc1nnc(NC(=O)c2cc(S(=O)(=O)N(C)C)ccc2N2CCCC2)s1` here?
A: Its value is -0.793%.

Q: For `CCOc1ccc(NC(=O)Nc2cc(C(C)C)c(O)cc2C)cc1`, which “hERG current change (%, negative = inhibition) at 10uM” value is on record?
A: The value was 4.34%.

Q: For `COc1ccc(S(=O)(=O)Nc2ccc(S(=O)(=O)N3CCCCC3)cc2)cc1C`, which “hERG current change (%, negative = inhibition) at 10uM” value is on record?
A: The value was -9.27%.

Q: With `O=C(Nc1cnn(Cc2ccccc2)c1)c1nc2ncccn2n1` as the compound, how does the “hERG current change (%, negative = inhibition) at 10uM” value read?
A: Its value is 6.14%.

Q: `CCc1c(C)nc(N2CCN(c3ccccc3F)CC2)[nH]c1=O` was tested. Which “hERG current change (%, negative = inhibition) at 10uM” value did it give?
A: The value was 13.7%.

Q: `C/C(=N\NC(=O)c1cccc(S(=O)(=O)Nc2ccccc2Cl)c1)c1ccc(-n2ccnc2)cc1` was tested. Which “hERG current change (%, negative = inhibition) at 10uM” value did it give?
A: Its value is 6.22%.

Q: For `Cc1ccc(NC(=S)NC(=O)C2CCC2)cc1C`, which “hERG current change (%, negative = inhibition) at 10uM” value is on record?
A: The value was 4.43%.

Q: With `Cc1c(CCOC(=O)C23CC4CC(CC(C)(C4)C2)C3)sc[n+]1CC(=O)c1ccccc1.[Br-]` as the compound, how does the “hERG current change (%, negative = inhibition) at 10uM” value read?
A: Its value is -26.7%.

Q: Which “hERG current change (%, negative = inhibition) at 10uM” value does the source give for `CCCCNC(=S)N1CCn2cccc2C1c1ccc(F)cc1` (stereo not drawn) here?
A: The value was -9.58%.

Q: How did the “hERG current change (%, negative = inhibition) at 10uM” value turn out when `CC(=O)N1C(=O)N(C)C2C1N(C)C(=O)N2C(C)=O` (stereo not drawn) was run?
A: Its value is 12.4%.

Q: Which “hERG current change (%, negative = inhibition) at 10uM” value does the source give for `Cc1ccc(NS(=O)(=O)c2cc(C(=O)N3CCN(C)CC3)ccc2C)cc1C` here?
A: Its value is -7.85%.

Q: With `CCCN1C2=NS(=O)(=O)CCN2c2ccccc21` as the compound, how does the “hERG current change (%, negative = inhibition) at 10uM” value read?
A: The value was -9.83%.

Q: For `Cc1c(C)c(C)c(/C=[N+](/C)[O-])c(C)c1C`, which “hERG current change (%, negative = inhibition) at 10uM” value is on record?
A: The value was 24.1%.

Q: How did the “hERG current change (%, negative = inhibition) at 10uM” value turn out when `CCN=C1SC(C(=O)Nc2ccc(Cl)c(Cl)c2)CC(=O)N1CC` (stereo not drawn) was run?
A: Its value is 10.9%.

Q: For `COc1ccc(C)cc1S(=O)(=O)NC(C)C(=O)NC1CC1` (stereo not drawn), which “hERG current change (%, negative = inhibition) at 10uM” value is on record?
A: Its value is 11.2%.

Q: For `COc1cc(NC(=O)c2ccc([N+](=O)[O-])o2)ccc1NC(=O)c1ccco1`, which “hERG current change (%, negative = inhibition) at 10uM” value is on record?
A: Its value is 4.6%.
